# Measurements taken from the supplement of paper PMC8728848.
# Some of the results follow.
# B1: Cohesin-marm-DC-ASGPR-CRD (protein)
# chain: LDITSHHHHHHDDLDAVRIKVDTVNAKPGDTVRIPVRFSGIPSKGIANCDFVYSYDPNVLEIIEIEPGDIIVDPNPDKSFDTAVYPDRKIIVFLFAEDSGTGAYAITKDGVFATIVAKVKEGAPNGLSVIKFVEVGGFANNDLVEQKTQFFDGGVNVGDTTEPATPTTPVTTPTTTDDLDAASCPINWVEHQGSCYWFSRSGKTWPEAERYCQLENTHLVVINSREEQNFVQAHLGSAYTWMGLSDPEGVWKWVDGTDYSSGFQNWKPGQPDDWQGHGLGGGEDCAHFHPDGRWNDDVCQRSYHWVCEAGLTQASQDSH
# What was measured:
# Assay in all cases: glycan array binding signal (z-score within array); higher = stronger binding
# Settings in all cases: glycan notation: IUPAC condensed, linker removed
# [1] = biological target: Gal(a1-3)Gal(b1-4)GlcNAc(b1-2)Man
# Method in brief: (§1)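 Columns mapping to the same glycan were averaged after glycan names were converted to IUPAC-condensed notation. The data come from 3228 arrays in the Consortium for Functional Glycomics database, limited to those with an available protein sequence. Binding is reported as a within-array Z-score averaged across arrays of one protein sequence and across linkers.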
# [2] = biological target: Gal(a1-3)Gal(b1-4)GlcNAc(b1-2)Man(a1-3)[Gal(a1-3)Gal(b1-4)GlcNAc(b1-2)Man(a1-6)]Man(b1-4)GlcNAc(b1-4)GlcNAc
# Method in brief: as §1
# [3] = biological target: Gal(a1-3)Gal(b1-4)GlcNAc(b1-3)GalNAc
# Method in brief: as §1
# [4] = biological target: Gal(a1-3)Gal(b1-4)GlcNAc(b1-6)GalNAc
# Method in brief: as §1
# [5] = biological target: Gal(a1-3)Gal(b1-4)[Fuc(a1-3)]GlcNAc
# Method in brief: as §1
# [6] = biological target: Gal(a1-3)Gal(b1-4)[Fuc(a1-3)]GlcNAc(b1-2)Man(a1-3)[Gal(a1-3)Gal(b1-4)[Fuc(a1-3)]GlcNAc(b1-2)Man(a1-6)]Man(b1-4)GlcNAc(b1-4)GlcNAc
# Method in brief: as §1
# Gal(a1-3)GalNAc = biological target: Gal(a1-3)GalNAc
# Method in brief: as §1
# [7] = biological target: Gal(a1-3)[Gal(a1-4)]Gal(b1-4)GlcNAc
# Method in brief: as §1
# [8] = biological target: Gal(a1-4)Gal(b1-3)GlcNAc(b1-2)Man(a1-3)[Gal(a1-4)Gal(b1-3)GlcNAc(b1-2)Man(a1-6)]Man(b1-4)GlcNAc(b1-4)GlcNAc
# Method in brief: as §1
# Gal(a1-4)Gal(b1-4)Glc = biological target: Gal(a1-4)Gal(b1-4)Glc
# Method in brief: as §1
# Gal(a1-4)Gal(b1-4)GlcNAc = biological target: Gal(a1-4)Gal(b1-4)GlcNAc
# Method in brief: as §1
# [9] = biological target: Gal(a1-4)Gal(b1-4)GlcNAc(b1-2)Man(a1-3)[Gal(a1-4)Gal(b1-4)GlcNAc(b1-2)Man(a1-6)]Man(b1-4)GlcNAc(b1-4)GlcNAc
# Method in brief: as §1
# [10] = biological target: Gal(a1-4)Gal(b1-4)GlcNAc(b1-3)Gal(b1-4)Glc
# Method in brief: as §1
# Gal(a1-4)GlcNAc = biological target: Gal(a1-4)GlcNAc
# Method in brief: as §1
# Gal(a1-6)Glc = biological target: Gal(a1-6)Glc
# Method in brief: as §1
# Gal(b1-2)Gal = biological target: Gal(b1-2)Gal
# Method in brief: as §1
# Gal(b1-3)Gal = biological target: Gal(b1-3)Gal
# Method in brief: as §1
# Gal(b1-3)Gal(b1-4)GlcNAc = biological target: Gal(b1-3)Gal(b1-4)GlcNAc
# Method in brief: as §1
# Gal(b1-3)GalNAc = biological target: Gal(b1-3)GalNAc
# Method in brief: as §1
# [11] = biological target: Gal(b1-3)GalNAc(a1-3)[Fuc(a1-2)]Gal(b1-4)Glc
# Method in brief: as §1
# [12] = biological target: Gal(b1-3)GalNAc(a1-3)[Fuc(a1-2)]Gal(b1-4)GlcNAc
# Method in brief: as §1
# Gal(b1-3)GalNAc(b1-3)Gal = biological target: Gal(b1-3)GalNAc(b1-3)Gal
# Method in brief: as §1
# [13] = biological target: Gal(b1-3)GalNAc(b1-3)Gal(a1-4)Gal(b1-4)Glc
# Method in brief: as §1
# [14] = biological target: Gal(b1-3)GalNAc(b1-4)Gal(b1-4)Glc
# Method in brief: as §1
# [15] = biological target: Gal(b1-3)GalNAc(b1-4)[Neu5Ac(a2-3)]Gal(b1-4)Glc
# Method in brief: as §1
# Gal(b1-3)GlcNAc = biological target: Gal(b1-3)GlcNAc
# Method in brief: as §1
# [16] = biological target: Gal(b1-3)GlcNAc(a1-3)Gal(b1-4)GlcNAc
# Method in brief: as §1
# [17] = biological target: Gal(b1-3)GlcNAc(a1-6)Gal(b1-4)GlcNAc
# Method in brief: as §1
# Gal(b1-3)GlcNAc(b1-2)Man = biological target: Gal(b1-3)GlcNAc(b1-2)Man
# Method in brief: as §1
# [18] = biological target: Gal(b1-3)GlcNAc(b1-2)Man(a1-3)[Gal(b1-3)GlcNAc(b1-2)Man(a1-6)]Man(b1-4)GlcNAc(b1-4)GlcNAc
# Method in brief: as §1
# [19] = biological target: Gal(b1-3)GlcNAc(b1-2)Man(a1-3)[Gal(b1-3)GlcNAc(b1-2)Man(a1-6)]Man(b1-4)GlcNAc(b1-4)[Fuc(a1-6)]GlcNAc
# Method in brief: as §1
# [20] = biological target: Gal(b1-3)GlcNAc(b1-2)Man(a1-3)[GlcNAc(b1-4)][Gal(b1-3)GlcNAc(b1-2)Man(a1-6)]Man(b1-4)GlcNAc(b1-4)GlcNAc
# Method in brief: as §1
# [21] = biological target: Gal(b1-3)GlcNAc(b1-2)[Gal(b1-3)GlcNAc(b1-6)]Man(a1-6)[Gal(b1-3)GlcNAc(b1-2)Man(a1-3)]Man(b1-4)GlcNAc(b1-4)GlcNAc
# Method in brief: as §1
# [22] = biological target: Gal(b1-3)GlcNAc(b1-3)Gal(b1-3)GlcNAc
# Method in brief: as §1
# [23] = biological target: Gal(b1-3)GlcNAc(b1-3)Gal(b1-4)Glc
# Method in brief: as §1
# [24] = biological target: Gal(b1-3)GlcNAc(b1-3)Gal(b1-4)GlcNAc
# Method in brief: as §1
# [25] = biological target: Gal(b1-3)GlcNAc(b1-3)Gal(b1-4)GlcNAc(b1-2)Man(a1-3)[Gal(b1-3)GlcNAc(b1-3)Gal(b1-4)GlcNAc(b1-2)Man(a1-6)]Man(b1-4)GlcNAc(b1-4)GlcNAc
# Method in brief: as §1
# [26] = biological target: Gal(b1-3)GlcNAc(b1-3)Gal(b1-4)GlcNAc(b1-2)[Gal(b1-3)GlcNAc(b1-3)Gal(b1-4)GlcNAc(b1-6)]Man(a1-6)[Gal(b1-3)GlcNAc(b1-3)Gal(b1-4)GlcNAc(b1-2)Man(a1-3)]Man(b1-4)GlcNAc(b1-4)[Fuc(a1-6)]GlcNAc
# Method in brief: as §1
# [27] = biological target: Gal(b1-3)GlcNAc(b1-3)Gal(b1-4)GlcNAc(b1-3)Gal(b1-4)GlcNAc(b1-2)[Gal(b1-3)GlcNAc(b1-3)Gal(b1-4)GlcNAc(b1-3)Gal(b1-4)GlcNAc(b1-6)]Man(a1-6)[Gal(b1-3)GlcNAc(b1-3)Gal(b1-4)GlcNAc(b1-3)Gal(b1-4)GlcNAc(b1-2)Man(a1-3)]Man(b1-4)GlcNAc(b1-4)[Fuc(a1-6)]GlcNAc
# Method in brief: as §1
# [28] = biological target: Gal(b1-3)GlcNAc(b1-3)Gal(b1-4)GlcNAc(b1-6)[Gal(b1-3)GlcNAc(b1-3)]Gal(b1-4)Glc
# Method in brief: as §1
# [29] = biological target: Gal(b1-3)GlcNAc(b1-3)Gal(b1-4)[Fuc(a1-3)]GlcNAc
# Method in brief: as §1
# [30] = biological target: Gal(b1-3)GlcNAc(b1-3)Gal(b1-4)[Fuc(a1-3)]GlcNAc(b1-6)[Gal(b1-3)GlcNAc(b1-3)]Gal(b1-4)Glc
# Method in brief: as §1
# [31] = biological target: Gal(b1-3)GlcNAc(b1-3)GalNAc
# Method in brief: as §1
# [32] = biological target: Gal(b1-3)GlcNAc(b1-6)Gal(b1-4)GlcNAc
# Method in brief: as §1
# [33] = biological target: Gal(b1-3)GlcNAc(b1-6)GalNAc
# Method in brief: as §1
binder,measurement,setting,value
B1,glycan array binding signal (z-score),[1],-0.444
same,glycan array binding signal (z-score),[2],-0.185
same,glycan array binding signal (z-score),[3],-0.443
same,glycan array binding signal (z-score),[4],2.82
same,glycan array binding signal (z-score),[5],-0.378
same,glycan array binding signal (z-score),[6],-0.38
same,glycan array binding signal (z-score),Gal(a1-3)GalNAc,0.125
same,glycan array binding signal (z-score),[7],-0.411
same,glycan array binding signal (z-score),[8],-0.341
same,glycan array binding signal (z-score),Gal(a1-4)Gal(b1-4)Glc,-0.372
same,glycan array binding signal (z-score),Gal(a1-4)Gal(b1-4)GlcNAc,-0.435
same,glycan array binding signal (z-score),[9],-0.425
same,glycan array binding signal (z-score),[10],-0.448
same,glycan array binding signal (z-score),Gal(a1-4)GlcNAc,-0.402
same,glycan array binding signal (z-score),Gal(a1-6)Glc,-0.426
same,glycan array binding signal (z-score),Gal(b1-2)Gal,-0.074
same,glycan array binding signal (z-score),Gal(b1-3)Gal,-0.431
same,glycan array binding signal (z-score),Gal(b1-3)Gal(b1-4)GlcNAc,-0.399
same,glycan array binding signal (z-score),Gal(b1-3)GalNAc,-0.382
same,glycan array binding signal (z-score),[11],-0.446
same,glycan array binding signal (z-score),[12],-0.447
same,glycan array binding signal (z-score),Gal(b1-3)GalNAc(b1-3)Gal,-0.343
same,glycan array binding signal (z-score),[13],2.55
same,glycan array binding signal (z-score),[14],-0.247
same,glycan array binding signal (z-score),[15],2.41
same,glycan array binding signal (z-score),Gal(b1-3)GlcNAc,-0.433
same,glycan array binding signal (z-score),[16],-0.444
same,glycan array binding signal (z-score),[17],-0.426
same,glycan array binding signal (z-score),Gal(b1-3)GlcNAc(b1-2)Man,-0.429
same,glycan array binding signal (z-score),[18],-0.407
same,glycan array binding signal (z-score),[19],-0.368
same,glycan array binding signal (z-score),[20],-0.414
same,glycan array binding signal (z-score),[21],-0.384
same,glycan array binding signal (z-score),[22],-0.38
same,glycan array binding signal (z-score),[23],-0.437
same,glycan array binding signal (z-score),[24],-0.45
same,glycan array binding signal (z-score),[25],-0.317
same,glycan array binding signal (z-score),[26],0.528
same,glycan array binding signal (z-score),[27],1.25
same,glycan array binding signal (z-score),[28],-0.437
same,glycan array binding signal (z-score),[29],-0.412
same,glycan array binding signal (z-score),[30],-0.454
same,glycan array binding signal (z-score),[31],-0.361
same,glycan array binding signal (z-score),[32],-0.437
same,glycan array binding signal (z-score),[33],2.41
